{"source": "PubChem BioAssay AID686970", "about": "(National Center for Advancing Translational Sciences (NCATS), 2013)", "note": "Screen size: about 360,000 compounds; about 6,000 (1.7%) were called active. The inconclusive results got no clear call from the source; some entries with a clear call stand among them for comparison. The call rests on the fitted dose curve; in most records, active means well fitted cell-killing curve with a large enough effect; inconclusive means small, poorly fitted or top-dose-only effect, or effect the other way; inactive means flat fitted curve, though single readings scatter. Potencies of inconclusive entries are left out as doubtful fits. Potency means the concentration at half of the fitted maximal effect; tags describe the fitted curve by direction and shape."}
{"experiment": "qHTS for induction of synthetic lethality in tumor cells producing 2HG: qHTS for the HT-1080-NT fibrosarcoma cell line; further: nearly all actives have a fitted effect of over 55% in size", "settings": "HT-1080-NT fibrosarcoma viability, CellTiter-Glo ATP luminescence, 48 h; activity, negative = less viability: at 46.1 µM (top of the series) unless noted", "from_the_text": "Unbiased genomic sequencing for 22 glioma genomes found recurrent mutation of IDH1 on chromosome 2q33, a gene encoding the cytosolic isoform of IDH1 associated with the tricarboxylic acid cycle (TCA) that catalyzes the oxidative decarboxylation of isocitrate, yielding alpha-ketoglutarate and CO2 via NADP+ to NADPH conversion. Subsequent studies confirmed the recurrent IDH mutations in up to 70% of secondary gliomas and in 10% of AML cases. In addition, the somatic mutation of cancer-associated IDH1 is a point mutation resulting in various amino-acid substituents at Arginine132 (IDH1 R132), a key residue found in the enzyme's active site that when mutated, results in the loss-of-function in metabolizing isocitrate but confers a gain-of-function to produce the oncometabolite 2-hydroxyglutarate (2HG). This in effect defines IDH1 as an oncogene and provides an extraordinary opportunity to discover chemical probes against mutant IDH1 that may translate into much needed new therapies for glioma and AML patients.\nThis assay aims to perform a synthetic lethal screen for chemical probes specific for 2HG-producing tumor cells using matched paired cell lines (1) HT-1080-NT fibrosarcoma cell line that overproduces 2HG and (2) HT-1080-IDH1KD cell line which has IDH1 expression knocked-down. Desirable compounds are toxic to the NT fibrosarcoma cells but not to the IDH1KD cell line. The data in this AID corresponds to the results of the qHTS against the HT-1080-NT fibrosarcoma cell line.\n[1] Dang L, Jin S, Su SM. IDH mutations in glioma and acute myeloid leukemia. Trends of Mol Med. 2010; 16(9): 387-97.\n[2] Dang L et al. Cancer-associated IDH1 mutations produce 2-hydroxyglutarate. Nature. 2010; 465(7300):966.\nNIH Molecular Libraries Probe Production Centers Network [MLPCN]\nNIH Chemical Genomics Center [NCGC]\nAssay Submitter (PI): Lenny Dang Ph.D., Agios Pharmaceuticals\nSuspensions of trypsinized HT-1080-NT cells were dispensed into white, tissue culture-treated, solid 1536-well plates at 5uL/well (750 cells/well final concentration) in RPMI medium supplemented with 5% FBS. Plates were incubated at 37 degrees C for 2 hours, after which 23 nL of compounds or DMSO were delivered to each well using a pin tool. Plates were then incubated at 37 degrees C for an additional 48 hours. CellTiter-Glo viability reagent (Promega) was dispensed into wells (2.5uL/well) and incubated at room temperature for 10 minutes. The plates were measured on a PerkinElmer ViewLux plate reader for luminescent signal (clear filter, 1 sec exp). DMSO-treated control wells and media-only (no cells) control wells were used to normalize %Activity of identified toxic compounds; DMSO-treated wells corresponded to 0%Activity (100% viability), while media-only controls were used to normalize 100%Activity (0% viability).\nConcentration-response curves were fitted to the signals arising from the resulting luminescence. The concentration-effect curves were then classified based on curve quality (r2), response magnitude and degree of measured activity, and compounds were subsequently categorized based on their curve class."}
{"smiles": "Cc1ccccc1OCc1nnc(SC(C)C(=O)O)n1-c1ccccc1", "note": "(configuration not stated)", "activity, negative = less viability": "inactive: 4.27%"}
{"smiles": "O=C(COC(=O)/C=C/c1cccc(Br)c1)NC1CCCC1", "activity, negative = less viability": "inactive: 23.6%"}
{"smiles": "O=C(CSc1ccccn1)Nc1nonc1[N+](=O)[O-]", "Potency": "active: 20.6 µM"}
{"smiles": "Cc1cc(C)nc(SCc2cccc(C(=O)O)c2)n1", "Potency": "inconclusive [rising, partial curve]"}
{"smiles": "COc1ccc(NC(=O)c2ccc(-c3nn(C)c(=O)c4ccccc34)cc2)cc1", "activity, negative = less viability": "inactive: 0%"}
{"smiles": "CNc1cncc(-c2cc(C)c(O)c(C)c2)n1", "Potency": "inconclusive [cytotoxic, single point]"}
{"smiles": "CCOc1ccc(CN(C(=O)c2cc3ccccc3oc2=O)C2CCS(=O)(=O)C2)cc1", "note": "(configuration not stated)", "activity, negative = less viability": "inactive: 22.5%"}
{"smiles": "CCCS(=O)(=O)NC(=O)C1(C)CCN(C(=O)c2ccco2)C1", "note": "(configuration not stated)", "Potency": "inconclusive [rising, single point]"}
{"smiles": "Cc1cc(Nc2ccccc2)n(-c2ccc(Br)cc2)n1", "Potency": "inconclusive [cytotoxic, partial curve]"}
{"smiles": "COc1ccc(C(=O)O)cc1S(=O)(=O)NCc1ccccn1", "activity, negative = less viability": "inactive: 22.2%"}
{"smiles": "CCOC(=O)N1CCC(N2CCCC(C(=O)c3ccc4cc(OC)ccc4c3)C2)CC1", "note": "(configuration not stated)", "Potency": "inconclusive [cytotoxic, single point]"}
{"smiles": "c1ccc(CNc2nc(NCC3CC3)nc3cc(-c4ccccc4)sc23)cc1", "Potency": "active: 23.1 µM"}
{"smiles": "Cc1cc(OCc2cc(C(=O)NCc3cc(C(C)C)no3)no2)cc(C)c1Cl", "Potency": "inconclusive [cytotoxic, single point]"}
{"smiles": "Cc1ccc([N+](=O)[O-])cc1S(=O)(=O)NCC1COc2ccccc2O1", "note": "(configuration not stated)", "activity, negative = less viability": "inactive: 0.899%"}
{"smiles": "Cc1ccc(S(=O)(=O)N(CC(=O)NCCC2=CCCCC2)Cc2ccccc2F)cc1", "Potency": "inconclusive [cytotoxic, single point]"}
{"smiles": "CC(C)c1ccc(C2C3=C(CC(C)(C)CC3=O)NC3=C2C(=O)c2ccccc23)cc1", "note": "(configuration not stated)", "Potency": "inconclusive [cytotoxic, single point]"}
{"smiles": "COc1cc(/C=N/NC(N)=S)ccc1OCc1ccc(C)cc1", "Potency": "inconclusive [cytotoxic, single point]"}
{"smiles": "O=S(=O)(c1ccccc1Cl)N1CCC(O)(c2cccnc2)CC1", "activity, negative = less viability": "inactive: 5.82%"}
{"smiles": "S=C(Nc1cccc(Cl)c1)N(CCCN1CCCC1)Cc1cccn1Cc1ccc(Cl)cc1", "Potency": "active: 16.4 µM"}
{"smiles": "CCn1c(=O)c(C(=O)NNC(=O)c2ccccc2)c(O)c2ccccc21", "Potency": "inconclusive [cytotoxic, partial curve]"}
{"smiles": "COc1cccc(SCc2noc(C(=O)NCCC(C)C)c2C(=O)NCCC(C)C)c1", "Potency": "inconclusive [rising, full curve, poor fit]"}
{"smiles": "COc1ccc(C23CC4CC(CC(C4)C2)C3)cc1C(=O)NCCN(C)C", "Potency": "inconclusive [cytotoxic, single point]"}
{"smiles": "CCCC(=O)Nc1ccc2c(c1)nc1n2CCSC1", "activity, negative = less viability": "inconclusive: 32.4%"}
{"smiles": "CC1Cc2ccccc2N1C(=S)Nc1ccc(S(N)(=O)=O)cc1", "note": "(configuration not stated)", "activity, negative = less viability": "inactive: -2.82%"}
{"smiles": "CCN1C(=O)N(c2cccc3ccccc23)C(C)=CC1(C)C", "activity, negative = less viability": "inactive: 2.64%"}
{"smiles": "COc1ccc(/C=C/c2nc3ccccc3n2Cc2ccccc2OC)cc1", "Potency": "active: 16.4 µM"}
{"smiles": "C[C@H](CO)N1C[C@H](C)[C@H](CN(C)Cc2ccccc2)Oc2ccc(NC(=O)Nc3ccc(F)cc3)cc2C1=O", "Potency": "inconclusive [cytotoxic, single point]"}
{"smiles": "C=C(C)COc1ccc(-c2[nH]ncc2Oc2ccccc2OC)c(O)c1", "Potency": "inconclusive [cytotoxic, single point]"}
{"smiles": "CC(=O)Oc1ccccc1Cn1c(C)c(C(=O)NCc2cccc(Cl)c2)sc1=O", "Potency": "inconclusive [cytotoxic, single point]"}
{"smiles": "CC1(C)O[C@@H]2[C@H](O1)[C@@H](CO)O[C@H]2n1cnc2c(=O)[nH]cnc21", "Potency": "inconclusive [rising, single point]"}
{"smiles": "O=C(Nc1ccc(S(=O)(=O)NCCc2ccccc2)cc1)c1ccco1", "activity, negative = less viability": "inactive: -5.9%"}
{"smiles": "COC(=O)[C@@]1(Cc2ccc(F)cc2)[C@H]2C(CC(=O)C(=O)N3CCCC3)C(=O)C[C@H]2CN1C(=O)c1ccccc1", "note": "(some centres not stated)", "Potency": "inconclusive [cytotoxic, single point]"}
{"smiles": "COC(=O)N1CC=CC1(C)C(=O)NCc1cc(F)cc(C(F)(F)F)c1", "note": "(configuration not stated)", "Potency": "inconclusive [rising, partial curve]"}
{"smiles": "COC(=O)CSC1=C(C#N)C(c2ccc(C)o2)CC(=O)N1", "note": "(configuration not stated)", "Potency": "inconclusive [cytotoxic, partial curve]"}
{"smiles": "CCOC(=O)c1ccc2c(c1)n(CC)c(/C=C/N(C)c1ccccc1)[n+]2CC", "Potency": "active: 6.51 µM"}
{"smiles": "Cc1cc[n+](CC2OCc3ccccc3CO2)cc1", "Potency": "inconclusive [cytotoxic, single point]"}
{"smiles": "Clc1ccc2nc(-c3ccc4c(c3)OCO4)cn2c1", "Potency": "inconclusive [cytotoxic, partial curve]"}
{"smiles": "O=[N+]([O-])c1ccc(-c2nc(NCc3cccnc3)c3ccccc3n2)cc1", "activity, negative = less viability": "inactive: -1.2%"}
{"smiles": "COc1cc2c(cc1NC(=O)CN1C(=O)NC3(CCc4ccccc43)C1=O)oc1ccccc12", "note": "(configuration not stated)", "Potency": "active: 23.1 µM"}
{"smiles": "O=C1NC(=S)S/C1=C\\c1cc2ccccc2nc1N1CCCCC1", "activity, negative = less viability": "inactive: -29.5%"}
{"smiles": "COC(=O)[C@]12CCCCC=C1N(Cc1ccco1)C(=O)[C@H](CC(=O)NCC13CC4CC(CC(C4)C1)C3)C2", "Potency": "inconclusive [cytotoxic, single point]"}
{"smiles": "O=C1Nc2ccccc2N(C(=O)c2ccc3ccccc3c2)C1c1nc2ccccc2[nH]1", "note": "(configuration not stated)", "Potency": "inconclusive [cytotoxic, single point]"}
{"smiles": "CCC(=O)NNc1ccc(Br)cc1", "Potency": "active: 3.66 µM"}
{"smiles": "O=C(NCCc1ccccc1)c1cc(-c2ccc3c(c2)OCO3)on1", "Potency": "inconclusive [cytotoxic, full curve]"}
{"smiles": "Cc1ccc(C(=O)NN2C(=O)C3C(C2=O)C2C=CC3C23CC3)cc1", "note": "(configuration not stated)", "activity, negative = less viability": "inactive: -0.789%"}
{"smiles": "Cc1ccc(S(=O)(=O)N(CCCO)Cc2cc3c(C)ccc(C)c3[nH]c2=O)cc1", "activity, negative = less viability": "inactive: -2.78%"}
{"smiles": "O=C(N/N=C/c1ccc(Cl)cc1Cl)c1cccc(F)c1", "Potency": "inconclusive [cytotoxic, single point]"}
